Some of the results follow. Sequences were assembled here from the parent chain. Values near 0.05 are background.
B1: TEV protease; numbered along this chain (parent)
chain: MGESLFKGPRDYNPISSSICHLTNESDGHTTSLYGIGFGPFIITNKHLFRRNNGTLVVQSLHGVFKVKDTTTLQQHLVDGRDMIIIRMPKDFPPFPQKLKFREPQREERICLVTTNFQTKSMSSMVSDTSCTFPSGDGIFWKHWIQTKDGQCGSPLVSTRDGFIVGIHSASNFTNTNNYFTSVPKNFMELLTNQEAQQWVSGWRLNADSVLWGGHKVFMVKPEEPFQPVKEATQL

Variants of: B1
Experiment: raw area under fraction-flipped curve 0-4 h after induction (AUC4h, not background-subtracted), DNA-recorder readout of cleavage of the substrate (dimensionless); higher = more cleavage of the substrate by the protease variant
Conditions: temperature: 34 °C; time window: 0-4 h after rhamnose induction
Protocol: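 In vivo DNA recorder in E. coli TOP10(DE3) ΔrhaA at 34 °C. Each TEVp single-site mutant (parent TEVp 0) is paired with a single-site variant of the 7-mer TEVs (canonical ENLYFQ|S). The substrate sits between flexible linkers in a Bxb1-sfGFP-TEVs-SsrA fusion, so cleavage stabilises Bxb1 and speeds flipping of a recombination array, read by NGS. The value is the raw area under the fraction-flipped curve over 0-4 h after rhamnose induction (AUC4h), with ≥20 reads per time point. It is not background-subtracted; inactive controls average about 0.047.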
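Note: Bxb1 expression induced with 0.2% (w/v) L-rhamnose at OD600 near 0.5, cultures sampled hourly, flipped fraction per protease–substrate barcode pair counted by paired-end Illumina sequencing.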

Variant	area with substrate EALYFQS	area with substrate ECLYFQS	area with substrate EDLYFQS	area with substrate EGLYFQS	area with substrate EHLYFQS	area with substrate EKLYFQS	area with substrate ELLYFQS	area with substrate EMLYFQS	area with substrate EPLYFQS	area with substrate EQLYFQS	area with substrate ERLYFQS	area with substrate ESLYFQS	area with substrate EVLYFQS	area with substrate EELYFQS	area with substrate EFLYFQS	area with substrate EILYFQS	area with substrate ETLYFQS	area with substrate EWLYFQS	area with substrate EYLYFQS
MGESLFKGPRDYNPISSSICHLTNESDGHTTSLYGIGFGPFIITNKHLFRRNNGTKVVQSLHGVFKVKDTTTLQQHLVDGRDMIIIRMPKDFPPFPQKLKFREPQREERICLVTTNFQTKSMSSMVSDTSCTFPSGDGIFWKHWIQTKDGQCGSPLVSTRDGFIVGIHSASNFTNTNNYFTSVPKNFMELLTNQEAQQWVSGWRLNADSVLWGGHKVFMVKPEEPFQPVKEATQL [L56K]	0.0558	0.0466	0.0342	0.0501	0.0532	0.0441	0.0496	0.12	0.0469	0.0544	0.0434	0.0586	0.0332	–	–	–	–	–	–
MGESLFKGPRDYNPISSSICHLTNESDGHTTSLYGIGFGPFIITNKHLFRRNNGTRVVQSLHGVFKVKDTTTLQQHLVDGRDMIIIRMPKDFPPFPQKLKFREPQREERICLVTTNFQTKSMSSMVSDTSCTFPSGDGIFWKHWIQTKDGQCGSPLVSTRDGFIVGIHSASNFTNTNNYFTSVPKNFMELLTNQEAQQWVSGWRLNADSVLWGGHKVFMVKPEEPFQPVKEATQL [L56R]	0.0447	0.0485	0.02	0.0589	0.0426	0.0493	–	0.0243	–	–	–	0.0323	–	0.0274	0.044	0.0461	0.0514	–	–
MGESLFKGPRDYNPISSSICHLTNESDGHTTSLYGIGFGPFIITNKHLFRRNNGTLVVQSLHGYFKVKDTTTLQQHLVDGRDMIIIRMPKDFPPFPQKLKFREPQREERICLVTTNFQTKSMSSMVSDTSCTFPSGDGIFWKHWIQTKDGQCGSPLVSTRDGFIVGIHSASNFTNTNNYFTSVPKNFMELLTNQEAQQWVSGWRLNADSVLWGGHKVFMVKPEEPFQPVKEATQL [V64Y]	0.13	–	–	–	–	–	0.0829	–	–	0.125	–	–	0.0814	–	–	–	–	–	–
MGESLFKGPRDYNPISSSICHLTNESDGHTTSLYGIGFGPFIITNKHLFRRNNGTLVVQSLHGDFKVKDTTTLQQHLVDGRDMIIIRMPKDFPPFPQKLKFREPQREERICLVTTNFQTKSMSSMVSDTSCTFPSGDGIFWKHWIQTKDGQCGSPLVSTRDGFIVGIHSASNFTNTNNYFTSVPKNFMELLTNQEAQQWVSGWRLNADSVLWGGHKVFMVKPEEPFQPVKEATQL [V64D]	0.104	0.107	–	–	–	0.111	–	0.0936	–	0.201	0.109	0.101	0.108	0.113	–	0.0874	–	0.126	0.0856
MGESLFKGPRDYNPISSSICHLTNESDGHTTSLYGIGFGPFIITNKHLFRRNNGTLVVQSLHGAFKVKDTTTLQQHLVDGRDMIIIRMPKDFPPFPQKLKFREPQREERICLVTTNFQTKSMSSMVSDTSCTFPSGDGIFWKHWIQTKDGQCGSPLVSTRDGFIVGIHSASNFTNTNNYFTSVPKNFMELLTNQEAQQWVSGWRLNADSVLWGGHKVFMVKPEEPFQPVKEATQL [V64A]	0.11	0.107	–	–	0.108	0.121	–	0.102	–	0.148	0.0958	0.0904	–	–	–	0.0781	–	0.115	0.0836
MGESLFKGPRDYNPISSSICHLTNESDGHTTSLYGIGFGPFIITNKHLFRRNNGTLVVQSLHGMFKVKDTTTLQQHLVDGRDMIIIRMPKDFPPFPQKLKFREPQREERICLVTTNFQTKSMSSMVSDTSCTFPSGDGIFWKHWIQTKDGQCGSPLVSTRDGFIVGIHSASNFTNTNNYFTSVPKNFMELLTNQEAQQWVSGWRLNADSVLWGGHKVFMVKPEEPFQPVKEATQL [V64M]	0.136	0.1	–	0.0848	0.0946	–	0.0888	0.106	0.122	0.124	0.111	0.0994	0.096	–	–	0.116	0.126	–	0.107
MGESLFKGPRDYNPISSSICHLTNESDGHTTSLYGIGFGPFIITNKHLFRRNNGTLVVQSLHGIFKVKDTTTLQQHLVDGRDMIIIRMPKDFPPFPQKLKFREPQREERICLVTTNFQTKSMSSMVSDTSCTFPSGDGIFWKHWIQTKDGQCGSPLVSTRDGFIVGIHSASNFTNTNNYFTSVPKNFMELLTNQEAQQWVSGWRLNADSVLWGGHKVFMVKPEEPFQPVKEATQL [V64I]	0.121	0.11	0.142	–	–	–	–	0.0907	0.0962	0.161	–	0.11	–	0.108	–	0.0649	0.136	–	–
MGESLFKGPRDYNPISSSICHLTNESDGHTTSLYGIGFGPFIITNKHLFRRNNGTLVVQSLHGVFSVKDTTTLQQHLVDGRDMIIIRMPKDFPPFPQKLKFREPQREERICLVTTNFQTKSMSSMVSDTSCTFPSGDGIFWKHWIQTKDGQCGSPLVSTRDGFIVGIHSASNFTNTNNYFTSVPKNFMELLTNQEAQQWVSGWRLNADSVLWGGHKVFMVKPEEPFQPVKEATQL [K66S]	0.121	0.208	0.129	0.0929	–	0.108	0.0683	0.106	–	0.119	–	–	0.0828	0.14	–	0.097	0.117	–	0.117
MGESLFKGPRDYNPISSSICHLTNESDGHTTSLYGIGFGPFIITNKHLFRRNNGTLVVQSLKGVFKVKDTTTLQQHLVDGRDMIIIRMPKDFPPFPQKLKFREPQREERICLVTTNFQTKSMSSMVSDTSCTFPSGDGIFWKHWIQTKDGQCGSPLVSTRDGFIVGIHSASNFTNTNNYFTSVPKNFMELLTNQEAQQWVSGWRLNADSVLWGGHKVFMVKPEEPFQPVKEATQL [H62K]	0.12	0.103	0.108	–	0.101	–	–	–	–	0.131	–	0.0655	0.0679	0.129	–	0.0951	–	–	–
MGESLFKGPRDYNPISSSICHLTNESDGHTTSLYGIGFGPFIITNKHLFRRNNGTLVVQSCHGVFKVKDTTTLQQHLVDGRDMIIIRMPKDFPPFPQKLKFREPQREERICLVTTNFQTKSMSSMVSDTSCTFPSGDGIFWKHWIQTKDGQCGSPLVSTRDGFIVGIHSASNFTNTNNYFTSVPKNFMELLTNQEAQQWVSGWRLNADSVLWGGHKVFMVKPEEPFQPVKEATQL [L61C]	0.105	0.0979	0.126	0.0908	0.0819	0.118	0.0946	0.116	0.122	0.108	0.103	0.105	0.111	0.121	0.128	0.0963	0.115	0.0862	0.0879
MGESLFKGPRDYNPISSSICHLTNESDGHTTSLYGIGFGPFIITNKHLFRRNNGTLVVQSLHGVAKVKDTTTLQQHLVDGRDMIIIRMPKDFPPFPQKLKFREPQREERICLVTTNFQTKSMSSMVSDTSCTFPSGDGIFWKHWIQTKDGQCGSPLVSTRDGFIVGIHSASNFTNTNNYFTSVPKNFMELLTNQEAQQWVSGWRLNADSVLWGGHKVFMVKPEEPFQPVKEATQL [F65A]	0.109	0.106	0.114	0.0923	0.0621	0.113	0.0852	0.131	–	0.111	0.0945	0.0881	0.0953	0.125	–	0.0643	–	0.0917	–
MGESLFKGPRDYNPISSSICHLTNESDGHTTSLYGIGFGPFIITNKHLFRRNNGTLVVQSLHWVFKVKDTTTLQQHLVDGRDMIIIRMPKDFPPFPQKLKFREPQREERICLVTTNFQTKSMSSMVSDTSCTFPSGDGIFWKHWIQTKDGQCGSPLVSTRDGFIVGIHSASNFTNTNNYFTSVPKNFMELLTNQEAQQWVSGWRLNADSVLWGGHKVFMVKPEEPFQPVKEATQL [G63W]	0.101	0.0963	0.108	0.0883	0.0799	0.124	0.0963	0.0932	0.101	0.0997	0.0773	0.0892	–	0.135	0.0868	0.0847	0.0938	0.0754	0.0744
MGESLFKGPRDYNPISSSICHLTNESDGHTTSLYGIGFGPFIITNKHLFRRNNGTLVVQSLHGVFKVRDTTTLQQHLVDGRDMIIIRMPKDFPPFPQKLKFREPQREERICLVTTNFQTKSMSSMVSDTSCTFPSGDGIFWKHWIQTKDGQCGSPLVSTRDGFIVGIHSASNFTNTNNYFTSVPKNFMELLTNQEAQQWVSGWRLNADSVLWGGHKVFMVKPEEPFQPVKEATQL [K68R]	0.103	0.0854	0.093	–	0.0988	0.0839	–	0.101	–	0.133	0.0927	–	–	0.146	–	0.0876	0.0921	0.115	0.0976
MGESLFKGPRDYNPISSSICHLTNESDGHTTSLYGIGFGPFIITNKHLFRRNNGTLVVQSLHGVFKVKPTTTLQQHLVDGRDMIIIRMPKDFPPFPQKLKFREPQREERICLVTTNFQTKSMSSMVSDTSCTFPSGDGIFWKHWIQTKDGQCGSPLVSTRDGFIVGIHSASNFTNTNNYFTSVPKNFMELLTNQEAQQWVSGWRLNADSVLWGGHKVFMVKPEEPFQPVKEATQL [D69P]	0.126	0.0763	0.103	0.0643	0.0873	0.085	0.0863	0.0925	–	0.0812	0.0876	0.0976	0.0929	0.0959	0.0947	0.0879	0.104	0.0771	0.0576
MGESLFKGPRDYNPISSSICHLTNESDGHTTSLYGIGFGPFIITNKHLFRRNNGTLVVQSLHGVFKVKGTTTLQQHLVDGRDMIIIRMPKDFPPFPQKLKFREPQREERICLVTTNFQTKSMSSMVSDTSCTFPSGDGIFWKHWIQTKDGQCGSPLVSTRDGFIVGIHSASNFTNTNNYFTSVPKNFMELLTNQEAQQWVSGWRLNADSVLWGGHKVFMVKPEEPFQPVKEATQL [D69G]	0.079	0.0861	–	0.106	0.0644	0.0879	–	0.103	–	–	–	0.0833	0.0713	0.0992	–	0.0663	–	0.0875	0.0489
MGESLFKGPRDYNPISSSICHLTNESDGHTTSLYGIGFGPFIITNKHLFRRNNGTLVVQSLHGVFKVKDTTELQQHLVDGRDMIIIRMPKDFPPFPQKLKFREPQREERICLVTTNFQTKSMSSMVSDTSCTFPSGDGIFWKHWIQTKDGQCGSPLVSTRDGFIVGIHSASNFTNTNNYFTSVPKNFMELLTNQEAQQWVSGWRLNADSVLWGGHKVFMVKPEEPFQPVKEATQL [T72E]	0.0969	–	–	–	–	–	–	–	–	0.109	–	0.102	–	–	–	–	0.0874	–	–
MGESLFKGPRDYNPISSSICHLTNESDGHTTSLYGIGFGPFIITNKHLFRRNNGTLVVQSLHGVFKVKDTTFLQQHLVDGRDMIIIRMPKDFPPFPQKLKFREPQREERICLVTTNFQTKSMSSMVSDTSCTFPSGDGIFWKHWIQTKDGQCGSPLVSTRDGFIVGIHSASNFTNTNNYFTSVPKNFMELLTNQEAQQWVSGWRLNADSVLWGGHKVFMVKPEEPFQPVKEATQL [T72F]	0.0817	0.0825	0.113	0.0774	–	0.0587	0.071	0.0932	0.0969	0.0985	–	0.0847	–	–	0.0995	0.0735	0.093	0.0618	0.0863
MGESLFKGPRDYNPISSSICHLTNESDGHTTSLYGIGFGPFIITNKHLFRRNNGTLVVQSLHGVFKVKDTTQLQQHLVDGRDMIIIRMPKDFPPFPQKLKFREPQREERICLVTTNFQTKSMSSMVSDTSCTFPSGDGIFWKHWIQTKDGQCGSPLVSTRDGFIVGIHSASNFTNTNNYFTSVPKNFMELLTNQEAQQWVSGWRLNADSVLWGGHKVFMVKPEEPFQPVKEATQL [T72Q]	0.121	0.119	0.112	0.0789	–	–	–	0.12	–	–	–	0.118	–	–	0.102	0.103	0.0916	–	0.112

From the supplement of paper PMC12217912
